# Measurements from the supplement of paper PMC8728848.
# Some of the results follow.
# B1: Spy0252 (Streptococcus pyogenes), Q9A1I9_STRP1 (protein)
# chain: MNMKKLASLAMLGASVLGLAACGGKSQKEAGASKSDTAKTEITWWAFPVFTQEKAEDGVGTYEKKLIAAFEKANPEIKVKLETIDFTSGPEKITTAIEAGTAPDVLFDAPGRIIQYGKNGKLADLNDLFTEEFTKDVNNDKLIQASKAGDTAYMYPISSAPFYMALNKKMLKDAGVLDLVKEGWTTDDFEKVLKALKDKGYNPGSFFANGQGGDQGPRAFFANLYSSHITDDKVTKYTTDDANSIKAMTKISNWIKDGLMMNGSQYDGSADIQNFANGQTSFTILWAPAQPGIQAKLLEASKVDYLEIPFPSDDGKPELEYLVNGFAVFNNKDEQKVAASKTFIQFIADDKEWGPKNVVRTGAFPVRTSYGDLYKDKRMEKIAEWTKFYSPYYNTIDGFAEMRTLWFPMVQAVSNGDEKPEDALKAFTEKANKTIKKTQ
# Assays:
# Assay in all cases: glycan array binding signal (z-score within array); higher = stronger binding
# Details in all cases: glycan notation: IUPAC condensed, linker removed
# [1] = target: Gal(b1-3)[Fuc(a1-4)]GlcNAc
# Summary of the method: (§1)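 Glycan array data were curated from 3228 arrays in the Consortium for Functional Glycomics database and kept only where the protein sequence was available. Glycan names were converted to IUPAC-condensed notation, and columns mapping to the same glycan were averaged. The binding signal is a within-array Z-score, averaged across arrays of the same protein sequence at different concentrations or buffers and across linkers. Negative Z-scores can be read as non-binding.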
# [2] = target: Gal(b1-3)[Fuc(a1-4)]GlcNAc(b1-2)Man(a1-3)[Gal(b1-3)[Fuc(a1-4)]GlcNAc(b1-2)Man(a1-6)]Man(b1-4)GlcNAc(b1-4)GlcNAc
# Summary of the method: as §1
# [3] = target: Gal(b1-3)[Fuc(a1-4)]GlcNAc(b1-2)Man(a1-3)[Gal(b1-3)[Fuc(a1-4)]GlcNAc(b1-2)Man(a1-6)]Man(b1-4)GlcNAc(b1-4)[Fuc(a1-6)]GlcNAc
# Summary of the method: as §1
# [4] = target: Gal(b1-3)[Fuc(a1-4)]GlcNAc(b1-3)Gal(b1-3)[Fuc(a1-4)]GlcNAc
# Summary of the method: as §1
# [5] = target: Gal(b1-3)[Fuc(a1-4)]GlcNAc(b1-3)Gal(b1-4)GlcNAc
# Summary of the method: as §1
# [6] = target: Gal(b1-3)[Fuc(a1-4)]GlcNAc(b1-3)Gal(b1-4)[Fuc(a1-3)]GlcNAc
# Summary of the method: as §1
# [7] = target: Gal(b1-3)[GlcNAc(b1-6)]GalNAc
# Summary of the method: as §1
# [8] = target: Gal(b1-3)[Neu5Ac(a2-6)]GalNAc
# Summary of the method: as §1
# [9] = target: Gal(b1-3)[Neu5Ac(a2-6)]GlcNAc(b1-6)Gal(b1-4)Glc
# Summary of the method: as §1
# [10] = target: Gal(b1-3)[Neu5Ac(b2-6)]GalNAc
# Summary of the method: as §1
# [11] = target: Gal(b1-4)GalNAc(a1-3)[Fuc(a1-2)]Gal(b1-4)GlcNAc
# Summary of the method: as §1
# [12] = target: Gal(b1-4)GalNAc(b1-3)[Fuc(a1-2)]Gal(b1-4)GlcNAc
# Summary of the method: as §1
# Gal(b1-4)Glc = target: Gal(b1-4)Glc
# Summary of the method: as §1
# Gal(b1-4)Glc6S = target: Gal(b1-4)Glc6S
# Summary of the method: as §1
# Gal(b1-4)GlcNAc = target: Gal(b1-4)GlcNAc
# Summary of the method: as §1
# [13] = target: Gal(b1-4)GlcNAc(a1-6)Gal(b1-4)GlcNAc
# Summary of the method: as §1
# [14] = target: Gal(b1-4)GlcNAc(b1-2)Man(a1-3)Man(b1-4)GlcNAc(b1-4)GlcNAc
# Summary of the method: as §1
# [15] = target: Gal(b1-4)GlcNAc(b1-2)Man(a1-3)[Gal(b1-4)GlcNAc(b1-2)Man(a1-6)]Man(b1-4)GlcNAc(b1-4)GlcNAc
# Summary of the method: as §1
# [16] = target: Gal(b1-4)GlcNAc(b1-2)Man(a1-3)[Gal(b1-4)GlcNAc(b1-2)Man(a1-6)]Man(b1-4)GlcNAc(b1-4)[Fuc(a1-6)]GlcNAc
# Summary of the method: as §1
# [17] = target: Gal(b1-4)GlcNAc(b1-2)Man(a1-3)[Man(a1-6)]Man(b1-4)GlcNAc(b1-4)GlcNAc
# Summary of the method: as §1
# [18] = target: Gal(b1-4)GlcNAc(b1-2)Man(a1-6)Man(b1-4)GlcNAc(b1-4)GlcNAc
# Summary of the method: as §1
# [19] = target: Gal(b1-4)GlcNAc(b1-2)Man(a1-6)[Man(a1-3)]Man(b1-4)GlcNAc(b1-4)GlcNAc
# Summary of the method: as §1
# [20] = target: Gal(b1-4)GlcNAc(b1-2)[Gal(b1-4)GlcNAc(b1-4)]Man(a1-3)[Gal(b1-4)GlcNAc(b1-2)Man(a1-6)]Man(b1-4)GlcNAc(b1-4)GlcNAc
# Summary of the method: as §1
# [21] = target: Gal(b1-4)GlcNAc(b1-3)Gal(b1-3)GlcNAc
# Summary of the method: as §1
# [22] = target: Gal(b1-4)GlcNAc(b1-3)Gal(b1-4)Glc
# Summary of the method: as §1
# [23] = target: Gal(b1-4)GlcNAc(b1-3)Gal(b1-4)GlcNAc
# Summary of the method: as §1
# [24] = target: Gal(b1-4)GlcNAc(b1-3)Gal(b1-4)GlcNAc(b1-3)Gal(b1-4)GlcNAc
# Summary of the method: as §1
# [25] = target: Gal(b1-4)GlcNAc(b1-3)Gal(b1-4)[Fuc(a1-3)]GlcNAc(b1-3)Gal(b1-4)[Fuc(a1-3)]GlcNAc
# Summary of the method: as §1
# [26] = target: Gal(b1-4)GlcNAc(b1-3)GalNAc
# Summary of the method: as §1
# [27] = target: Gal(b1-4)GlcNAc(b1-3)[Gal(b1-4)GlcNAc(b1-6)]Gal(b1-4)GlcNAc
# Summary of the method: as §1
# [28] = target: Gal(b1-4)GlcNAc(b1-3)[GlcNAc(b1-6)]Gal(b1-4)GlcNAc
# Summary of the method: as §1
# [29] = target: Gal(b1-4)GlcNAc(b1-6)Gal(b1-4)GlcNAc
# Summary of the method: as §1
# [30] = target: Gal(b1-4)GlcNAc(b1-6)Gal(b1-4)GlcNAc(b1-6)GalNAc
# Summary of the method: as §1
# [31] = target: Gal(b1-4)GlcNAc(b1-6)GalNAc
# Summary of the method: as §1
# [32] = target: Gal(b1-4)GlcNAc(b1-6)[Gal(b1-3)]GalNAc
# Summary of the method: as §1
# Gal3S(b1-3)GalNAc = target: Gal3S(b1-3)GalNAc
# Summary of the method: as §1
# Gal3S(b1-3)GlcNAc = target: Gal3S(b1-3)GlcNAc
# Summary of the method: as §1
binder,measurement,setting,value
B1,glycan array binding signal (z-score),[1],-0.271
same,glycan array binding signal (z-score),[2],1.86
same,glycan array binding signal (z-score),[3],0.612
same,glycan array binding signal (z-score),[4],-0.211
same,glycan array binding signal (z-score),[5],-0.266
same,glycan array binding signal (z-score),[6],-0.263
same,glycan array binding signal (z-score),[7],-0.252
same,glycan array binding signal (z-score),[8],-0.262
same,glycan array binding signal (z-score),[9],-0.265
same,glycan array binding signal (z-score),[10],-0.266
same,glycan array binding signal (z-score),[11],-0.085
same,glycan array binding signal (z-score),[12],-0.214
same,glycan array binding signal (z-score),Gal(b1-4)Glc,0.749
same,glycan array binding signal (z-score),Gal(b1-4)Glc6S,1.82
same,glycan array binding signal (z-score),Gal(b1-4)GlcNAc,-0.269
same,glycan array binding signal (z-score),[13],-0.254
same,glycan array binding signal (z-score),[14],-0.272
same,glycan array binding signal (z-score),[15],-0.269
same,glycan array binding signal (z-score),[16],-0.211
same,glycan array binding signal (z-score),[17],-0.244
same,glycan array binding signal (z-score),[18],-0.272
same,glycan array binding signal (z-score),[19],-0.242
same,glycan array binding signal (z-score),[20],-0.258
same,glycan array binding signal (z-score),[21],-0.277
same,glycan array binding signal (z-score),[22],-0.112
same,glycan array binding signal (z-score),[23],-0.253
same,glycan array binding signal (z-score),[24],-0.277
same,glycan array binding signal (z-score),[25],-0.271
same,glycan array binding signal (z-score),[26],-0.267
same,glycan array binding signal (z-score),[27],-0.27
same,glycan array binding signal (z-score),[28],-0.284
same,glycan array binding signal (z-score),[29],-0.205
same,glycan array binding signal (z-score),[30],-0.231
same,glycan array binding signal (z-score),[31],-0.225
same,glycan array binding signal (z-score),[32],-0.2
same,glycan array binding signal (z-score),Gal3S(b1-3)GalNAc,-0.252
same,glycan array binding signal (z-score),Gal3S(b1-3)GlcNAc,-0.263
